Holding throughout (test): co-IP; whole-cell extracts of ESCs (700 μg lysate; lysis buffer 50 mM Tris-HCl pH 7.6, 250 mM NaCl, 0.05% NP40) incubated with 1 μg anti-cohesin antibody (SMC3, RAD21, REC8, STAG1, STAG2, STAG3) overnight, protein A/G agarose 3 h at 4 °C, western blot
In assay [1] the target is T1, STAG1 (mouse (endogenous in J1 ESCs)) (UniProt Q9D3E6).
T1 sequence: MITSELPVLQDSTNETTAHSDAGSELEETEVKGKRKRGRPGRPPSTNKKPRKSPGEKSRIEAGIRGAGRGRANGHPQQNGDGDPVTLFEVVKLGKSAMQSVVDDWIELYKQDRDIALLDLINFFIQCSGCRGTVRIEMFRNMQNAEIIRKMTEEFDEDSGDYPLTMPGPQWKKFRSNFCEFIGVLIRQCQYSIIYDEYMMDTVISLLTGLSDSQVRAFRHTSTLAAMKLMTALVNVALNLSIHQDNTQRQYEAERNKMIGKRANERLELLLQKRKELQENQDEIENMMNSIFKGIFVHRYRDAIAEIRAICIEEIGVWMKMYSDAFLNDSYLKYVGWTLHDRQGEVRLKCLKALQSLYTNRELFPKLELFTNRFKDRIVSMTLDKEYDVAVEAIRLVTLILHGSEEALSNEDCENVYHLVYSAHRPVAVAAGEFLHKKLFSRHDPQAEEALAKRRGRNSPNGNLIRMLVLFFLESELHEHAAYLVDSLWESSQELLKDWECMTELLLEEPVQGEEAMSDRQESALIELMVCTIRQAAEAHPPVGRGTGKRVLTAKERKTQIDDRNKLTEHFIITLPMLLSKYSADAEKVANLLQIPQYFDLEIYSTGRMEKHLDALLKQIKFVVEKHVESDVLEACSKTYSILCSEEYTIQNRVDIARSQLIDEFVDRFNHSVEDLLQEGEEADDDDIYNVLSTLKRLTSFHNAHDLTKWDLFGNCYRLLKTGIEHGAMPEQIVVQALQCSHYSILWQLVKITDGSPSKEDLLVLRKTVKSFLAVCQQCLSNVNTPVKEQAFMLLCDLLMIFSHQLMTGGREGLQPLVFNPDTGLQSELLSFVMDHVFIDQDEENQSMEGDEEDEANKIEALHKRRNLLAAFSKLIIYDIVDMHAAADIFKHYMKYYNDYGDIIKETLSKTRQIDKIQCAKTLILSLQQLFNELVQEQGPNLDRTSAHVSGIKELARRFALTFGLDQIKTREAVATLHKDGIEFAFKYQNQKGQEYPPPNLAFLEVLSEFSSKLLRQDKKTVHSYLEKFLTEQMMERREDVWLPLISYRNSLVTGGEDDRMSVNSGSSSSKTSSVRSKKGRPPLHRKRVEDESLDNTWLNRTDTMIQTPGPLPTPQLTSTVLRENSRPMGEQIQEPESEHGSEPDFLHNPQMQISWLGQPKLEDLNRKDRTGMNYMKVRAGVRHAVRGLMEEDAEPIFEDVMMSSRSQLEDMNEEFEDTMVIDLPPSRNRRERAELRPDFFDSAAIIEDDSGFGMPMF

The target in assay [2] is T2, STAG2 (mouse (endogenous in J1 ESCs)) (UniProt O35638).
T2 sequence: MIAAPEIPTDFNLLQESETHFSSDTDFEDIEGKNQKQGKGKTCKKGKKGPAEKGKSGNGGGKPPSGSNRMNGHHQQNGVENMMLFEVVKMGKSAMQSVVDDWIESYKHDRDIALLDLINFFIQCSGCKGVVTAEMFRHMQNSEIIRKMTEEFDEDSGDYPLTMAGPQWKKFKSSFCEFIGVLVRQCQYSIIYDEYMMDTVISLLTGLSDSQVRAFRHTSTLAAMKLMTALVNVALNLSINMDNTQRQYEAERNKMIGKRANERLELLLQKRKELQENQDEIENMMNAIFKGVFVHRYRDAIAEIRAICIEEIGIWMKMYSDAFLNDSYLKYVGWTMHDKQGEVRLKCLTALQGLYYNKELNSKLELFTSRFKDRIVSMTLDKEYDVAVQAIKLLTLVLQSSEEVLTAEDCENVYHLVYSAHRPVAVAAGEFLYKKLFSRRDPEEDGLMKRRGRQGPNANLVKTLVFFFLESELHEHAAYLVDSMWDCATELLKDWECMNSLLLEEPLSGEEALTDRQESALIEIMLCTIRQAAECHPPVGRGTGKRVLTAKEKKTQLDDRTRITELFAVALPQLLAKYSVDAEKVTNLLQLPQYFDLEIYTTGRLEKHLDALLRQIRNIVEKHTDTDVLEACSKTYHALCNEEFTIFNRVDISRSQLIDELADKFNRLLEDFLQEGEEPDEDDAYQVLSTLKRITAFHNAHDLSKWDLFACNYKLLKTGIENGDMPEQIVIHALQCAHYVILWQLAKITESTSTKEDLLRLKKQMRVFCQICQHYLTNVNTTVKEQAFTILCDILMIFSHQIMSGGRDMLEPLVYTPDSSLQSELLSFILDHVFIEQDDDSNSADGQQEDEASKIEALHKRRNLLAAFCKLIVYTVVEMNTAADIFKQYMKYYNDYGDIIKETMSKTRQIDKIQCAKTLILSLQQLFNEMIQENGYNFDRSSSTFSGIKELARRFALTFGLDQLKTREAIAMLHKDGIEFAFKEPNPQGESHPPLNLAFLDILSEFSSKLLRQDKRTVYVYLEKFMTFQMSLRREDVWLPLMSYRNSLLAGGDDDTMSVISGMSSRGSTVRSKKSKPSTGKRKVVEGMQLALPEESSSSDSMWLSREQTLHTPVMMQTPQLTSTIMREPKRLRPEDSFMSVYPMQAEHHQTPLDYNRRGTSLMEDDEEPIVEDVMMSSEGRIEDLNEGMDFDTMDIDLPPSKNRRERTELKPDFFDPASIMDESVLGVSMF

Assay [3] concerns the target T3, STAG3 (mouse (endogenous in J1 ESCs)) (UniProt O70576).
T3 sequence: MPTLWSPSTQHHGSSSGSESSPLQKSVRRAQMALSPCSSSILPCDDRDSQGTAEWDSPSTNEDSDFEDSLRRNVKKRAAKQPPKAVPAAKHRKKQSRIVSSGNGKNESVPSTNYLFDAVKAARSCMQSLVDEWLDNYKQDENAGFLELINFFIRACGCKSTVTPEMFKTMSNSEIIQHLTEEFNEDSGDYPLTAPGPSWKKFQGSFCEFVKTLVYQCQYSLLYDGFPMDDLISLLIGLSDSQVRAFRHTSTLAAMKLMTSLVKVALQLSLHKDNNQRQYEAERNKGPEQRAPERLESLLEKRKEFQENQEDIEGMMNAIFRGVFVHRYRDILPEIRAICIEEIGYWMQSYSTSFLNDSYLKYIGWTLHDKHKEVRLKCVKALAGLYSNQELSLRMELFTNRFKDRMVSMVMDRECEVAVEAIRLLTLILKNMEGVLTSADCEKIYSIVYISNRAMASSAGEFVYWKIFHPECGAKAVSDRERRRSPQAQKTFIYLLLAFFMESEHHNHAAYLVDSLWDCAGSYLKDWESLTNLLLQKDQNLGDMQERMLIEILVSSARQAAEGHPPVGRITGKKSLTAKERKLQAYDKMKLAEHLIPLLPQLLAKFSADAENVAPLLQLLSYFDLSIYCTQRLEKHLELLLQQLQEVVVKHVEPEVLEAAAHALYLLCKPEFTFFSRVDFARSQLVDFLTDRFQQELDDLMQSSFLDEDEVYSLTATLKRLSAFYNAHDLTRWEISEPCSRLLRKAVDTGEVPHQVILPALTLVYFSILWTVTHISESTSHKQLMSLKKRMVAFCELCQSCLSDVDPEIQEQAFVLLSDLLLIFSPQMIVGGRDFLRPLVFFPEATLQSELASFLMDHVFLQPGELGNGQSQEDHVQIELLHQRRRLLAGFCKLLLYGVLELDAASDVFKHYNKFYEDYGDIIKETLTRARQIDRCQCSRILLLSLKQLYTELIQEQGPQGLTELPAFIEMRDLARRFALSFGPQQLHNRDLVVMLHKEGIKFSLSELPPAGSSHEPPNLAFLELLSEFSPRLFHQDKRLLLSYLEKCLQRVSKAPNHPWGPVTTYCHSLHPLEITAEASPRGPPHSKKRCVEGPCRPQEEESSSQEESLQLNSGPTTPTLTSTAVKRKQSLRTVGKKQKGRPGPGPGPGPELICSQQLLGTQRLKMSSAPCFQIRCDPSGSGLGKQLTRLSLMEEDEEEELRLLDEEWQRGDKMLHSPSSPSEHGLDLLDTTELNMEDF

Results are given in words; binding and its absence hold for the method and conditions named. In cells and extracts the contact can be indirect. Some binding calls cover weakened binding; strength is not graded here. Sequences can lack the tags named with a protein.

This is an account of results in PMC8892811.

B1: REC8 (protein, UniProt Q8C5S7 1-591)
chain: MFYYPNVLQRHTGCFATIWLAATRGSRLVKREYLNVNVVKTCEEILNYVLVRVQPPVAGLPRPRFSLYLSAQLQIGVIRVYFQQCQYLVEDIQHILEHLHRAQLRIRIDMEEADLPSLLLPNCLAMMETLEDAPEPFFGKMSVDPRLPSPFDIPQIRHLLEAATPEKTRKETLPEATPDPRKPDRTLATVQSPEVITLQEAEPIRMLQIEGEQDLPEISRGDLELLIAEKDDAILLEERQRGRLLRQRRASLPLDESREEPRALEGAGLVSALSPPAPAQVEGIQEALPGQVFPPEVQKMTGWEPGALLTEVTPPQELRLPAPPSTEKRLPSLQRPLPRRHRRRQLLFWDKETQISREKFEEQLQTGAHCWEYPVAQPPKRMLTSPAELFRTPTLSGWLPPELLGLWTHCAQVPQRMLRQRPQLETEETVEEERAADEEERRKTEALSEIEVLREAQEPSGPLMLSSELSLEAAEDEKSRTSLIPPEWWAWSEEGQPEPPALPMLPELPEVPMEMPPRPELSSEAVLRAVALKLQANKELDFSSLVPPLSPRKLASRVFYLLLVLSTQKILLVEQQKPYGPLLIRPGPKFP
Turning to B1, the binding entry in assay [1] is reported as “no binding”; in assay [2] it was “no binding”; in assay [3], “binds”.
